The values below come from the antibiotic and cytotoxicity screens of Wong et al. (2023).

One assay relates to HSkMC. Nature of the assay: cytotoxicity call (relative viability < 0.9). The following applies: 10 µM.
A further assay deals with S. aureus RN4220. Description: growth inhibition call (relative growth <= 0.2). The note with it: 50 µM.

SMILES strings stand for the structures. This is one part of the list.

As to `CCC(=O)N1CCC(C(=O)O)CC1`, the cytotoxicity call with HSkMC was “inactive”. Also, the growth inhibition call with S. aureus RN4220 is “inactive”.
`C[C@H](CO)N1C[C@H](C)[C@H](CN(C)Cc2cccc(O)c2)OCc2ccccc2-c2c(n(C)c3ccccc23)C1=O`: in the assay on HSkMC, the cytotoxicity call was “inactive”. Also, in the assay on S. aureus RN4220, the growth inhibition call is “inactive”.
For the compound `CC(C)[Si]1(C(C)C)OCc2cc(-c3ccc(-c4ccc(Cl)c(Cl)c4)o3)nc(-c3ccc(Oc4ccccc4)cc3)c21`, the cytotoxicity call in the assay with HSkMC was “inactive”. Moreover, in the assay with S. aureus RN4220, the growth inhibition call was “inactive”.
As for `Cc1ccc(S(=O)(=O)Nc2ccc3c(c2)C(=O)N([C@H](C)CO)C[C@H](C)[C@@H](CN(C)S(=O)(=O)c2ccc(F)cc2)OCCCC[C@H](C)O3)cc1`, the cytotoxicity call in the assay on HSkMC was “active”. For the same compound, in the assay on S. aureus RN4220, the growth inhibition call is “inactive”.
The matching figures for `COc1ccc(S(=O)(=O)N(C)C[C@H]2Oc3ccc(NC(=O)Cc4ccccc4)cc3C(=O)N([C@H](C)CO)C[C@@H]2C)cc1`: “active” and “inactive”.
In the same order, the values of `C[C@@H]1CCCCO[C@@H](CN(C)Cc2ccccc2)[C@H](C)CN([C@H](C)CO)C(=O)c2cc(NC(=O)C3CCCCC3)ccc2O1` are “inactive” and “inactive”.
In the same order, the values of `Cc1noc(C)c1NC(=O)N[C@H]1C=C[C@H](CC(=O)N2CCN(C)CC2)O[C@@H]1CO` are “inactive” and “inactive”.
For `C[C@H](CO)N1C[C@H](C)[C@@H](CN(C)Cc2ccncc2)Oc2ccc(NC(=O)Cn3cnnn3)cc2C1=O`, the cytotoxicity call with HSkMC is “inactive”. Also, the growth inhibition call with S. aureus RN4220 was “inactive”.
Turning to `C[C@@H]1CCCCO[C@@H](CN(C)C(=O)NC2CCCCC2)[C@H](C)CN([C@H](C)CO)C(=O)c2cc(NC(=O)NC3CCCCC3)ccc2O1`, the cytotoxicity call with HSkMC was “inactive”. The growth inhibition call with S. aureus RN4220 is “inactive”.
`CC(=O)N1CCc2n[nH]c(C(=O)N3CCOCC3)c2C1`: in the assay on HSkMC, the cytotoxicity call was “inactive”. For the same compound, in the assay with S. aureus RN4220, the growth inhibition call is “inactive”.
As to `C[C@@H]1CN([C@@H](C)CO)C(=O)c2cccc(NC(=O)Nc3cccc4ccccc34)c2O[C@H]1CN(C)S(=O)(=O)c1ccc2ncsc2c1`, in the assay with HSkMC, the cytotoxicity call was “inactive”. Besides, the growth inhibition call in the assay on S. aureus RN4220 was “inactive”.
With `COc1ccc(S(=O)(=O)N(C)C[C@@H]2Oc3ncc(-c4ccncc4)cc3C(=O)N([C@H](C)CO)C[C@H]2C)cc1`, the cytotoxicity call in the assay on HSkMC is “inactive”. Moreover, in the assay on S. aureus RN4220, the growth inhibition call is “inactive”.
`C[C@@H]1CN([C@H](C)CO)S(=O)(=O)c2ccc(-c3ccc(C(=O)N(C)C)cc3)cc2O[C@H]1CN(C)C(=O)Cc1ccccn1`: in the assay with HSkMC, the cytotoxicity call is “inactive”. Further, the growth inhibition call with S. aureus RN4220 is “inactive”.
As to `COCCNCCn1cnc2c1c(=O)[nH]c(=O)n2C`, the cytotoxicity call with HSkMC is “inactive”. For the same compound, the growth inhibition call with S. aureus RN4220 was “inactive”.
On to `C[C@H]1CN([C@@H](C)CO)C(=O)CCCn2cc(nn2)CO[C@H]1CN(C)C(=O)c1ccc(N2CCN(C)CC2)cc1`, for which the cytotoxicity call with HSkMC was “inactive”. Also, the growth inhibition call with S. aureus RN4220 is “inactive”.
On to `COC(=O)[C@H](Cc1ccccc1)NC(=O)[C@@H](N)CC(=O)O`, for which the cytotoxicity call in the assay with HSkMC is “inactive”. Moreover, the growth inhibition call with S. aureus RN4220 was “inactive”.
As for `Cc1ccc(S(=O)(=O)Nc2ccc3c(c2)C(=O)N([C@@H](C)CO)C[C@H](C)[C@@H](CN(C)C(=O)Nc2cccc4ccccc24)OCCCC[C@H](C)O3)cc1`, the cytotoxicity call in the assay on HSkMC is “inactive”. Also, the growth inhibition call with S. aureus RN4220 was “inactive”.
On to `COc1ccc2c3c(n(c2c1)C)[C@H](CO)N(C[C@]13CCN(CC1)C(=O)CN1CCOCC1)C(=O)Nc1ccc(cc1)F`, for which the cytotoxicity call with HSkMC is “inactive”. In the assay on S. aureus RN4220, the growth inhibition call is “inactive”.
Regarding `O=C(C[C@H]1C=C[C@H](NC(=O)CN2CCOCC2)[C@@H](CO)O1)NCCc1ccccc1`, in the assay with HSkMC, the cytotoxicity call is “inactive”. Besides, in the assay on S. aureus RN4220, the growth inhibition call was “inactive”.
For `CCS(=O)(=O)N1CCC(C(=O)N(C)C)CC1`, the cytotoxicity call with HSkMC was “inactive”. Further, in the assay with S. aureus RN4220, the growth inhibition call was “inactive”.
On to `O=S(=O)(O)NC1CCCCC1`, for which the cytotoxicity call with HSkMC was “inactive”. For the same compound, in the assay with S. aureus RN4220, the growth inhibition call was “inactive”.
In the case of `CO[C@@H]1CN(C)C(=O)c2ccc(NC(=O)Nc3ccc(Cl)cc3)cc2OC[C@H](C)N(C(=O)Nc2c(C)noc2C)C[C@@H]1C`, the cytotoxicity call in the assay with HSkMC is “inactive”. Further, the growth inhibition call in the assay on S. aureus RN4220 is “inactive”.
On to `C[C@@H]1CN([C@@H](C)CO)C(=O)c2cccc(NC(=O)c3ccncc3)c2O[C@H]1CN(C)S(=O)(=O)c1cccs1`, for which the cytotoxicity call with HSkMC is “inactive”. In the assay on S. aureus RN4220, the growth inhibition call was “inactive”.
Consider `C[C@@H]1CN([C@H](C)CO)C(=O)CCCn2cc(nn2)CO[C@H]1CN(C)S(=O)(=O)c1ccc(Cl)cc1`, for which the cytotoxicity call with HSkMC is “inactive”. In addition, the growth inhibition call in the assay on S. aureus RN4220 was “inactive”.
With `COc1cc(C=CC(=O)O)cc(OC)c1OC`, the cytotoxicity call in the assay on HSkMC was “inactive”. The growth inhibition call in the assay on S. aureus RN4220 is “inactive”.
As for `C[C@H]1CC=CC[C@H](c2cccc(Cl)c2)NC(=O)[C@H](Cc2ccccc2)N(C)C(=O)c2ccccc2O1`, the cytotoxicity call in the assay with HSkMC was “inactive”. In addition, the growth inhibition call in the assay with S. aureus RN4220 is “inactive”.
In the case of `CCNc1nc(OCCO)nc(N(C)C)n1`, the cytotoxicity call in the assay on HSkMC (human skeletal muscle cells) is “inactive”. In addition, the growth inhibition call in the assay on S. aureus RN4220 is “inactive”.
Regarding `C[C@H](CO)N1C[C@H](C)[C@@H](CN(C)S(=O)(=O)c2cn(C)cn2)Oc2ccc(NC(=O)Nc3ccccc3)cc2CC1=O`, the cytotoxicity call in the assay with HSkMC is “inactive”. Further, the growth inhibition call in the assay on S. aureus RN4220 was “inactive”.
Turning to `Cc1noc(C)c1S(=O)(=O)Nc1ccc2c(c1)C(=O)N([C@H](C)CO)C[C@@H](C)[C@@H](CN(C)Cc1ccc(C(=O)O)cc1)O2`, in the assay with HSkMC, the cytotoxicity call is “inactive”. In addition, the growth inhibition call in the assay with S. aureus RN4220 was “inactive”.
`C[C@@H]1CN([C@@H](C)CO)C(=O)c2cc(NC(=O)C3CCCCC3)ccc2O[C@H]1CN(C)Cc1ccc(-c2ccccc2)cc1`: in the assay with HSkMC, the cytotoxicity call was “inactive”. Moreover, the growth inhibition call with S. aureus RN4220 is “inactive”.
For the compound `C[C@H]1CN([C@@H](C)CO)S(=O)(=O)c2ccc(-c3ccncc3)cc2O[C@@H]1CN(C)Cc1ccc(Oc2ccccc2)cc1`, the cytotoxicity call in the assay with HSkMC was “inactive”. Moreover, the growth inhibition call in the assay on S. aureus RN4220 is “inactive”.
